# Results reported in article PMC6919601, “Identification of Plasmodium dipeptidyl aminopeptidase allosteric inhibitors by high throughput screening” (PLoS ONE, 2019).
# “And” between values parts separate entries of the source, which are not always exact repeats. Equal entries are not always repeated. Screen size: about 110,000 compounds; about 230 (0.21%) showed an effect of 50% or more. Some of the results follow.
# Molecular target: DPAP1 (Plasmodium falciparum, UniProt Q8IIJ9)
# Assay: primary screen, percent inhibition; read by cleavage of a fluorogenic dipeptide substrate; higher = more effect of the substance
# Design: species or system P. falciparum D10 trophozoite lysates; single well
# 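Further: 30 min substrate incubation versus DMSO and 10 µM JCP410 controls.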
# DPAP1, sequence (Q8IIJ9 whole entry, looked up): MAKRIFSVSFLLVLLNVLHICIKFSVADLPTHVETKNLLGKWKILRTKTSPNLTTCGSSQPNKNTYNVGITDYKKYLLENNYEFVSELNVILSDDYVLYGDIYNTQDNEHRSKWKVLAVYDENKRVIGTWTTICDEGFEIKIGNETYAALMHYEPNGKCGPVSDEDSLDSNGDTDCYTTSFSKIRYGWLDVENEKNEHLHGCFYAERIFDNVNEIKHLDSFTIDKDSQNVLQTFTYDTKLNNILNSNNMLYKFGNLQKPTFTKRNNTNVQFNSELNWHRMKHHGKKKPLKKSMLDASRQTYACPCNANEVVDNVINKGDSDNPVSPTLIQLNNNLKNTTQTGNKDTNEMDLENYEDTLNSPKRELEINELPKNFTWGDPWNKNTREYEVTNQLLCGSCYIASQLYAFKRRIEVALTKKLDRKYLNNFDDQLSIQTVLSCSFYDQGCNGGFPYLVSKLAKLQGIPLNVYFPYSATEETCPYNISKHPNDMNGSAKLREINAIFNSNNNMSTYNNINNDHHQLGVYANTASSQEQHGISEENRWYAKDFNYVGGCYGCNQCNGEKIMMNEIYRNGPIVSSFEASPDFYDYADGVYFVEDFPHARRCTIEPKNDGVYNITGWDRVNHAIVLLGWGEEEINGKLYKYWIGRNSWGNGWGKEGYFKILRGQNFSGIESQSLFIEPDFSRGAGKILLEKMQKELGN
row,SMILES,% Inhibition @ 10 uM
1,COC(=O)c1cc(-c2ccccc2)n(C)c1C,3.3%
2,COc1ccccc1NS(=O)(=O)c1ccc(NC(=O)COc2ccc(Cl)cc2Cl)cc1,-2.74%
3,Cc1nnc(N2CCCC(C(=O)N3CCc4ccccc4C3)C2)c2nn(-c3ccccc3)c(C)c12 (centres unmarked),9.35%
4,Cc1ccc(CNS(=O)(=O)c2ccc(-c3cc(C(F)(F)F)no3)s2)o1,5.67%
5,CCN(CC)CCNC(=O)/C(=C/c1cn(CC)c2ccccc12)NC(=O)c1ccccc1OC,-1.74%
6,CC(C)(C)NCC(=O)Nc1c2c(nc3ccccc13)N(Cc1ccccc1)CC2,4.15%
7,COc1cccc(OC)c1C(=O)Nc1cc(C)on1,-5.14%
8,Cc1ccc(CNC(=O)CSc2c3c(nc4ccc(Cl)cc24)CCCC3)o1,-8.9%
9,O=[N+]([O-])c1cccc(-c2cn3ccsc3n2)c1,1.66%
10,Cc1sc(NC(=O)c2ccc(Cl)cc2)c(C(N)=O)c1-c1ccccc1,5.24%
11,O=S(=O)(c1ccc2oc3ccc(S(=O)(=O)N4CCCCCC4)cc3c2c1)N1CCCCCC1,1.94%
12,COc1ccc(-c2cc(C(F)(F)F)nc(SCC(=O)Nc3cc(C)on3)n2)cc1,-2.09%
13,CN1C(=O)NC(=O)/C(=C\C=C\c2ccco2)C1=O,-2.97% and 0.587%
14,Cc1ccc(S(=O)(=O)N(CC(=O)N(C)Cc2ccccc2)c2ccccc2)cc1,-2.44%
15,COc1cc(NCc2ccccc2C(F)(F)F)cc(OC)c1OC,1.57%
16,Cc1ccc(-n2nc(C)c3c(C(=O)NCc4cccnc4)cc(C)nc32)cc1,2.19%
17,CCC(C)NC(=O)Cn1nc(-c2ccccc2)ccc1=O (centres unmarked),-3.22%
18,COC(=O)c1sccc1NC(=O)CC#N,0.351%
19,CC(C)CNC(=O)C(=O)NCc1ccc(Cl)cc1,2.94%
20,C=CCNS(=O)(=O)c1cccc2nonc12,0.611%
21,CCc1ccc(-n2nc(C)c3c(C)cc(O)nc32)cc1,3.36%
22,CCOC(=O)N1CCC(NC(=O)Cn2ncn3c(cc4sc(CC)cc43)c2=O)CC1,-7.22%
23,O=S(=O)(Nc1ccc2c(c1)OCO2)c1ccc2c(c1)OCCO2,-5.6%
24,COc1cc(C=O)cc(OC)c1OCc1ccc(F)cc1,-6.84%
25,COc1ccc(C(=O)Nc2ccc(S(=O)(=O)N3CCCCCC3)cc2)cc1,-1.52%
26,COc1cc(Br)cc(/C=C2/SC(=O)N(C(C)C)C2=O)c1O,5.39%

row,SMILES,% Inhibition @ 10 uM
1,COc1ccc(CNC(=O)C2CCN(S(=O)(=O)c3cccc4nonc34)CC2)cc1,8.91%
2,COc1ccc(CC(=O)Nc2ccc(F)cc2F)cc1,-1.25%
3,Cc1ccccc1-n1c(C)nc2sccc2c1=O,-7.43%
4,CCc1ccccc1NC(=O)CN1CCCCC1,-1.55%
5,NC(=O)CCSc1ccc(Cl)cc1,3.82%
6,Cc1nc(Oc2ccccc2)cc(-n2ncc(C#N)c2N)n1,-2.77%
7,Cc1ccc(C(=O)N/C(=C/c2ccccc2)C(=O)NC(C)C(=O)O)cc1 (centres unmarked),-1.52%
8,Cc1ccc2c(C(=O)CNc3nccs3)c(C)[nH]c2c1,3.47%
9,Cc1ccc(-c2cc(C(=O)NCc3ccc4c(c3)OCO4)c3ccccc3n2)o1,-3.72%
10,O=C(Nc1nn2c(-c3ccco3)nnc2s1)c1ccc(F)cc1,0.00665%
11,Cc1cccc2c(O)c(NC(=O)N3CCC(C(N)=O)CC3)cnc12,-4.91%
12,Cc1cccc(S(=O)(=O)Nc2ccc(-c3cn4ccsc4n3)cc2)c1,-4.65%
13,Oc1ccc(CN2CCN(c3cccc(C(F)(F)F)c3)CC2)cc1,-3.56%
14,CC1CCCC(C)N1CCNC(=O)C1CCN(S(=O)(=O)N2CCCCC2)CC1 (centres unmarked),-10.9%
15,COc1ccc(CNC2CCSC2)c(OC)c1 (centres unmarked),2.99%
16,COc1ccc(C)cc1-n1nnc(-c2nsc(NC(=O)c3ccc(C)c(C)c3)n2)c1C,-0.656%
17,O=C(NCCc1n[nH]c(CCN2C(=O)c3ccccc3C2=O)n1)c1ccccc1,-6.71%
18,COC(=O)CCC(=O)Nc1ccc([N+](=O)[O-])cc1Br,-5.51%
19,CC(c1ccccc1)N1C(=O)NC(=O)/C(=C/c2coc3ccccc3c2=O)C1=O (centres unmarked),-2.19%
20,O=C(NCCSCc1ccccc1)c1cccnc1S,13.1%
21,CCOC(=O)c1[nH]c(C)c(C(=O)NCCN2CCCCCC2)c1C,-1.06%
22,O=C(NC12CC3CC(CC(C3)C1)C2)N1CCC(CN2CCOCC2)CC1,5.14%
23,O=C(NCc1ccc2c(c1)OCO2)C1COc2ccccc2O1 (centres unmarked),-1.52%
24,CC(C)(C)c1ccc(C(=O)N/C(=C\c2cccs2)C(=O)Nc2ccc(S(N)(=O)=O)cc2)cc1,4.32%
25,C=C1c2cc(OC)ccc2NC(=O)N1c1ccc(Cl)cc1,-1.55%
26,COc1ccc(CNCc2c(C(=O)O)n(Cc3cc(C)ccc3C)c3ccccc23)cc1,1.93%

row,SMILES,% Inhibition @ 10 uM
1,COc1ccc(NC(=O)[C@@H]2C3C=CC(C3)[C@@H]2C(=O)O)cc1 (some centres unmarked),1.54%
2,Cc1ccc2c3c(ccc2n1)N=C1CCCC(O)=C1C3c1ccccc1 (centres unmarked),-1.06%
3,O=C(Nc1cccc(N2C(=O)C3CC=CCC3C2=O)c1)c1ccccc1 (centres unmarked),-4.54%
4,O=C(c1cc(F)c(F)cc1Cl)N1CCOCC1,-1.8%
5,O=C(NCCC1=CCCCC1)C1CCN(c2ncnc3c2nc2n3CCCCC2)CC1,4.61%
6,Oc1nc(-c2ccccc2)c2cc(Cl)ccc2n1,-1.32%
7,COc1ccc2cc(-c3nc(-c4ccc(OC)c(OC)c4)no3)c(=O)oc2c1,10.3%
8,Cc1cc(C)c2nc(N3CCCC(C(=O)NC4CCN(Cc5ccccc5)CC4)C3)sc2c1 (centres unmarked),-1.58%
9,COCc1[nH]nc2c1C(c1ccncc1)C(C#N)=C(N)O2 (centres unmarked),-2.06%
10,COc1ccccc1[C@@H]1[C@H]2CCCC[C@]2(O)CCN1C(C)=O,0.98%
11,COc1ccc(CN2CCN(S(=O)(=O)c3ccc(Cl)cc3)CC2)cc1Br,2.45%
12,CC(=O)N[C@H]1[C@H](Oc2nc3ccccc3o2)O[C@H](CO)[C@@H](O)[C@@H]1O,4.8%
13,COc1cc(C(=O)Nc2ccccn2)cc(OC)c1OC,-1.6%
14,COc1ccc(CNC(=O)c2cc3c(s2)-c2ccc(Cl)cc2S(=O)(=O)C3)cc1,-2.45%
15,O=C1CC(N2CCC(c3nc4ccccc4o3)CC2)C(=O)N1Cc1ccc(F)cc1 (centres unmarked),-2.18%
16,O=C(NCCCN1CCN(C2CCCCC2)CC1)c1cc2c(s1)CS(=O)(=O)C2,-6.59%
17,NS(=O)(=O)c1ccc(NC(=O)CN2C(=O)S/C(=C\C=C\c3ccccc3)C2=O)cc1,1.27%
18,CN(CC(=O)Nc1ccc(C(F)(F)F)cc1)S(=O)(=O)c1ccc(F)cc1,-2.29%
19,Cc1cc(C(=O)NCc2nc3ccccc3[nH]2)c2ccccc2n1,10.4%
20,Brc1ccc(-c2nnc(CC34CC5CC(CC(C5)C3)C4)o2)cc1,-8.53%
21,COc1cc2ncc(C(=O)c3ccc(C)cc3)c(S(=O)(=O)c3ccccc3)c2cc1OC,-10.6%
22,Cc1cc(OCCCCn2ccnc2)cc(C)c1Cl,3.48%
23,Cc1ccccc1CNC(=O)CN(c1ccc(F)cc1)S(=O)(=O)c1ccccc1,3.17%
24,Clc1ccc2c(c1)c1cc(Cl)ccc1n2COCc1ccccc1,-4.91%
25,Cc1cc(C)n(-c2nnc(C)n2/N=C/c2ccccc2O)n1,2.35%
26,CC(=O)c1cc2c(cc1NC(=O)c1ccc(Cl)cc1)OCO2,-1.61%

row,SMILES,% Inhibition @ 10 uM
1,CCc1nn(CCCC(=O)NCc2ccc(OC)cc2)c(=O)c2cc3occc3n12,-3.79%
2,COC(=O)c1sccc1NC(=O)c1nc(-c2ccncc2)no1,3.71%
3,Cc1ccc2c(c1)-c1onc(C(=O)N3CCC(C)CC3)c1CO2,4.1%
4,CC(NC(=O)CN(C)S(=O)(=O)c1ccc2[nH]c(-c3ccccc3)nc2c1)c1ccccc1 (centres unmarked),2.27%
5,O=C(NCCSCc1ccccc1)c1ccc(CN2CCc3ccccc3C2)cc1,-3.63%
6,CCC(CC)NCc1cc(OC)cc(OC)c1,1.43%
7,CN(C)CCN(C)C1CCN(C)CC1,2.22%
8,CC(=O)N(c1cccc(C)c1)S(=O)(=O)c1ccc(Cl)cc1,-3.14%
9,O=[N+]([O-])c1ccccc1-c1nc2ccccc2[nH]1,8.68%
10,CCn1c(C(O)c2cc(OC)ccc2OC)nc2ccccc21 (centres unmarked),4.47%
11,Cc1cccc(OCC(=O)NC2C3CC4CC(C3)CC2C4)c1C (centres unmarked),0.189%
12,O=S(=O)(Nc1nccs1)c1ccc(F)cc1,1.87%
13,OCCN1CCN(c2nc(-c3ccc(Cl)cc3)cs2)CC1,-3.45%
14,FC(c1nc2cc(Cl)ccc2[nH]1)C(F)(F)F (centres unmarked),1.66%
15,Cc1ccc2oc(C(=O)NCCc3ccc(S(N)(=O)=O)cc3)c(C)c2c1,-1.36%
16,CN1CCC(N(C)Cc2ccc(Br)cc2)CC1,-1.92%
17,CS(=O)(=O)N(CC(=O)NCc1ccc(Cl)cc1)C1CCCCC1,-0.545%
18,COc1cc(OC)c(OC)cc1CN1CCOCC1,2.7%
19,Cc1nc2c(C(=O)N3CCc4ccccc4C3)cnn2c(C)c1Cc1ccc(Cl)cc1,-2.26%
20,COc1cccc(S(=O)(=O)Nc2ccc(C(=O)NCc3ccco3)cc2)c1,0.795%
21,O=C(Cn1ncc2c3ccccc3n(Cc3ccccc3F)c2c1=O)N1CCC2(CC1)OCCO2,-1.58%
22,COc1ccccc1CN1CCN(Cc2cc(OC)c(OC)cc2OC)CC1,7.04%
23,Cc1ccc(C2CC(=O)N3CN(CCC(C)C)CSC3=C2C#N)cc1 (centres unmarked),43.8%
